Experimental data taken from PubChem BioAssay AID720709 (National Center for Advancing Translational Sciences (NCATS), 2013).
In all, about 360,000 compounds went through this assay and about 520 (0.14%) were called active. The shares of active, inactive and inconclusive entries below differ from those in the screen. Calls follow the shape of the dose curve; as a rule, active = well fitted inhibition curve with a large enough effect; inconclusive = small, poorly fitted or top-dose-only effect; inactive = no such curve, though single readings can be large or run the other way. Potencies beside an inconclusive call are fits to weak or partial responses and may not hold up.

biological target: Rap guanine nucleotide exchange factor 3 (Homo sapiens) (UniProt O95398); experiment: qHTS for Antagonist of cAMP-regulated guanine nucleotide exchange factor 3 (EPAC1): primary screen; conditions: EPAC1 GEF assay, Rap1b-BODIPY-GDP exchange fluorescence; activity change, negative = inhibition: at 115 µM (top of the series); also: nearly all actives have a fitted effect of over 50% in size;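 as to activity change, negative = inhibition: plate controls were vehicle for no effect and positive control for full effect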
Sequence of UniProt O95398 (O95398 whole entry, looked up): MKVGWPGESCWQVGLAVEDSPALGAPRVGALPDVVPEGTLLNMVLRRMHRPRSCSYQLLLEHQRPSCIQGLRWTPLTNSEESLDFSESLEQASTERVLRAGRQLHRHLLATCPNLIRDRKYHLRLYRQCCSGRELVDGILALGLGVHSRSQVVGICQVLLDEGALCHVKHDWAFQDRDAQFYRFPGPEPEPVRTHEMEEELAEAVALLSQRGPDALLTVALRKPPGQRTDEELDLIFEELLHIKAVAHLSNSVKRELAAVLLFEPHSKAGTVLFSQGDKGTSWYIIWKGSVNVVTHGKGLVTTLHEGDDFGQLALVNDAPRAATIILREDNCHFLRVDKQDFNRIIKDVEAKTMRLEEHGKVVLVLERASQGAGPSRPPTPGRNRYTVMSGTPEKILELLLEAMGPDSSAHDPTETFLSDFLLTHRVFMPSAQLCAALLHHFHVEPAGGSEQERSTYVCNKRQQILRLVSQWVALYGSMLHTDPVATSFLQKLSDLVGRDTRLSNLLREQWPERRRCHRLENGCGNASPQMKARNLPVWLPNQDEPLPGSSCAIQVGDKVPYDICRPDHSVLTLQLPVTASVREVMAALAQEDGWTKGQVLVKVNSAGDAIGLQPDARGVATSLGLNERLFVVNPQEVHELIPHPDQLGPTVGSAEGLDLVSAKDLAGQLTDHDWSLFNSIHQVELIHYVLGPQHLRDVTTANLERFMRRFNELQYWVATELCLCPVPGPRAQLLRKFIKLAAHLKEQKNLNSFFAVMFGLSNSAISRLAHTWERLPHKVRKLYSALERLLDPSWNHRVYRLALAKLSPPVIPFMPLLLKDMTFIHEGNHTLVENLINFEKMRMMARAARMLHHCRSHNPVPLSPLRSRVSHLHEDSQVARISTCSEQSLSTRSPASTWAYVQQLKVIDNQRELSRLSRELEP
Potency is read from the fitted curve at half-maximal effect; tags tell the direction and shape of the fitted curve.

Potency, inconclusive:
COc1cc(/C=C2/SC(=O)NC2=O)ccc1OCc1ccccc1 35.5 µM [inhibitor, full curve, poor fit]
CCCCn1c(N)c(N(CC)C(=O)CCc2ccccc2)c(=O)[nH]c1=O 100 µM [inhibitor, single point]
S=C(NCc1ccco1)NCC(c1ccco1)N1CCCCC1 (configuration not stated) 31.6 µM [inhibitor, partial curve]
O=C(c1cc2ncccn2n1)N1CCc2c([nH]c3ccccc23)C1c1ccccc1F (configuration not stated) 89.1 µM [inhibitor, partial curve]
O=C(Nc1cccc(-c2cn3ccccc3n2)c1)c1cc2ccccc2oc1=O 10 µM [inhibitor, partial curve, poor fit]
Cc1cc(C)c2nc(-c3cccnc3)cc(C(=O)Nc3ccc(S(=O)(=O)Nc4onc(C)c4C)cc3)c2c1 89.1 µM [inhibitor, single point]
Cc1ccc(NC(=O)COC(=O)CCc2ccccc2)c(Cl)c1 79.4 µM [inhibitor, partial curve, poor fit]
CCc1ccc(S(=O)(=O)/N=C2\C=C(Nc3cccc(C(=O)O)c3)C(=O)c3ccccc32)cc1 56.2 µM [inhibitor, partial curve, poor fit]
Cc1ccc(NC(=S)NC(=O)c2ccc(F)cc2)cc1S(=O)(=O)Nc1ccccc1Cl 3.98 µM [inhibitor, full curve]
COc1ccc(-n2nc3c(c2NC(=O)C24CC5CC(CC(C5)C2)C4)CS(=O)C3)cc1 (configuration not stated) 28.2 µM [inhibitor, single point]
CN1C(=O)/C(=C/C=C2/CCCN2C)N(C)C1=S 50.1 µM [inhibitor, partial curve]
O=C(O)c1cn(C2CC2)c2cc(N3CCN(S(=O)(=O)c4ccc5c(c4)OCCO5)CC3)c(F)cc2c1=O 79.4 µM [inhibitor, partial curve]
CC(Nc1cccc2ccccc12)C(=O)N/N=C/c1ccc([N+](=O)[O-])cc1 (configuration not stated) 79.4 µM [inhibitor, single point]
Cc1c(NC(=O)C(C)Sc2n[nH]c(N)n2)c(=O)n(-c2ccccc2)n1C (configuration not stated) 20 µM [inhibitor, partial curve]
COc1cccc(N2CCN(c3ccc4nnc(CCC(=O)Nc5ncccc5C)n4n3)CC2)c1 100 µM [inhibitor, single point]
CNC[C@H]1Oc2c(NS(=O)(=O)c3cccs3)cccc2C(=O)N([C@H](C)CO)C[C@@H]1C 35.5 µM [inhibitor, full curve]
CC(C)Cc1nc(Nc2ccc(S(=O)(=O)N3CCCC3)cc2)c2nnn(Cc3ccccc3)c2n1 79.4 µM [inhibitor, single point]
CCc1cccc2c(C(=O)COC(=O)c3nn(C)c(=O)c4ccccc34)c[nH]c12 50.1 µM [inhibitor, partial curve]
COCCn1nnnc1C(c1cc2cc(OC)c(OC)cc2[nH]c1=O)N1CCN(c2ccc(O)cc2)CC1 (configuration not stated) 8.91 µM [inhibitor, full curve, poor fit]
CC(C)(C)c1ccc(C(=O)NNc2ccc(F)cc2F)cc1 2.82 µM [inhibitor, full curve, poor fit]
CCCCc1ccc(Nc2nc(CCC)cc(=O)[nH]2)cc1 100 µM [inhibitor, single point]
CCCCCC(=O)Nc1cccc(C2=NOC3(C2)C[C@H](C(N)=O)N(C(=O)COc2ccc(Cl)cc2)C3)c1 (some centres not stated) 10 µM [inhibitor, full curve, poor fit]
CCC(C)[C@H]1COCCS(=O)(=O)N1Cc1ccc(C)cc1 (some centres not stated) 70.8 µM [inhibitor, single point]
CCOC(=O)C1(Cc2ccccc2C)CCCN(C(=O)CCc2c(C)noc2C)C1 (configuration not stated) 35.5 µM [inhibitor, full curve, poor fit]
C=CCn1c(SCc2cc(=O)n3ccsc3n2)nc2scc(C3CC3)c2c1=O 39.8 µM [inhibitor, single point]
O=C(COC(=O)c1ccc(O)cc1)Nc1ccccc1[N+](=O)[O-] 39.8 µM [inhibitor, single point]
COc1cc(OC)c(C(=O)OC(C)C(=O)Nc2cc(C(F)(F)F)ccc2Cl)cc1OC (configuration not stated) 56.2 µM [inhibitor, partial curve]
O=C(OCc1cc(=O)n2ccsc2n1)c1ccccc1NCCO 100 µM [inhibitor, single point]
CN(C)S(=O)(=O)c1cc(NC(=O)COC(=O)/C=C/c2ccco2)ccc1Cl 17.8 µM [inhibitor, full curve, poor fit]
COc1ccc(O)c(/C=N/NC(=S)Nc2cccnc2)c1 100 µM [inhibitor, partial curve, poor fit]
COc1cccc(C(=O)Nc2cccc(S(=O)(=O)NC3=NCCC3)c2)c1 79.4 µM [inhibitor, single point]
COc1cc(NC(=O)CN2C(=O)C(c3ccccc3)=NC23CCCCCC3)cc(OC)c1 7.94 µM [inhibitor, full curve, poor fit]
O=Cc1ccc(Sc2nnc(-c3ccccc3)o2)c([N+](=O)[O-])c1 112 µM [inhibitor, partial curve, poor fit]
CC(/C=C1\SC(=S)N(NC(=O)c2cccc(O)c2)C1=O)=C\c1ccccc1 44.7 µM [inhibitor, partial curve]
COc1ccc(Cl)cc1NC(=O)C1Cc2ccccc2CN1S(C)(=O)=O (configuration not stated) 50.1 µM [inhibitor, full curve, poor fit]
O=C(O)c1cc(NC(=S)NC(=O)C(c2ccccc2)c2ccccc2)ccc1Cl 31.6 µM [inhibitor, single point]
N=C1S/C(=C\c2ccc(-c3cccc(Cl)c3)o2)C(=O)N1c1nccs1 89.1 µM [inhibitor, single point]
CC(/C=N/NC(=O)c1cccnc1)=C\c1ccccc1 100 µM [inhibitor, single point]
CC(C)N1CCN(CC#Cc2ccccc2)CC1CCO (configuration not stated) 89.1 µM [inhibitor, single point]
COc1cccc(CNC(=O)CCNS(=O)(=O)c2ccc3[nH]c(=O)oc3c2)c1 100 µM [inhibitor, single point]
C=CCN(Cc1ccc(OC)c(OC)c1)C(=O)c1cc2cc(F)ccc2[nH]1 50.1 µM [inhibitor, partial curve]
O=C(N/N=C/c1cc(Br)c(O)c(Br)c1O)c1ccc2c(c1)OCCO2 28.2 µM [inhibitor, partial curve]
CCC1(C)Cc2c(sc3c2c(=O)n(C)c2nnc(SCc4ccc5c(c4)OCO5)n32)CO1 (configuration not stated) 39.8 µM [inhibitor, single point]
O=C(CNC(=O)c1ccco1)OCC(=O)c1ccc(Cl)cc1Cl 100 µM [inhibitor, single point]
C=CCNC(=O)CSc1nc2sccc2c(=O)n1-c1ccccc1 3.55 µM [inhibitor, full curve, poor fit]

Potency, inactive:
COC(=O)c1ccc2nc(-c3ccco3)c(Cc3ccccc3)n2c1
Cc1cc(F)c(F)c(C(=O)N2CCCCC2C)c1Cl (configuration not stated)
Cc1cc(SCC(=O)c2ccc3c(c2)OCO3)nc2ccccc12
CCOc1cc(NC(=S)NCC2CCCO2)c(OCC)cc1NC(=O)c1ccccc1C (configuration not stated)
COC(=O)[C@@]1(Sc2ccc(OC)cc2)CC(=O)N[C@@H]1c1ccccc1
Cc1cc(C(C)(C)CC(C)(C)C)ccc1OCCOCC[N+](C)(C)Cc1ccccc1
COc1cccc(C(O)c2ncc(-c3cccc4ccccc34)[nH]2)c1 (configuration not stated)
O=C1OCC(CO)(CO)N=C1NNc1cc(Cl)ccc1Cl
O=C1C=CC(O)C2(CO)OC12 (configuration not stated)
CC(=O)Nc1ccc(-c2cn3ccsc3n2)cc1
O=C1/C(=C/c2ccco2)Oc2c1ccc(O)c2CN1CCCCC1
CCOc1cc(N2CCOCC2)c(OCC)cc1NC(=O)Cc1cccc(OC)c1
CC(=O)Nc1ccc(CN2C(=O)C(C)ON=C2c2ccccc2-c2ccco2)cc1 (configuration not stated)
CSCCC(NS(=O)(=O)c1ccc(Cl)cc1)C(=O)N1CCN(c2ccccc2)CC1 (configuration not stated)
O=C(c1ccco1)N1N=C(c2cccs2)CC1c1ccco1 (configuration not stated)
CCCCS(=O)(=O)/C=C\C1C2C=CC(C2)C1S(=O)(=O)CCCC (configuration not stated)
COc1cc(C(C#N)N2CCOCC2)ccc1O (configuration not stated)
CC(=O)/C=C/n1c(=S)oc2ccccc21

Potency, active:
COc1cc(/C=C2\C(=N)N3N=C(S(C)(=O)=O)SC3=NC2=O)cc(OC)c1OCCOc1ccccc1C 50.1 µM
O=C(O)CSc1cc(NS(=O)(=O)c2ccc(Br)cc2)c2ccccc2c1O 56.2 µM

Activity change, negative = inhibition, inconclusive:
COc1ccc(CCNC(=O)C2CCC(=O)N(C3CCCCCC3)C2)cc1 (configuration not stated) -6.3% [inhibitor]
Cc1cnn(C(=O)c2ccccc2Br)c1 2.12% [inhibitor]
